Test results published in article PMC12136788.
Some of the results follow.

B1: 79685907_79689965_1188_CDS_ENSG00000067715_ENST00000261205|human|control|control (ssRNA)
RNA: GGGAGUUCUACAGUCCGACGAUCUUUUGUCUCAAAUUUCUUCUUCUUAUCAGGUAGCAGAAACACUUUCACGUAAGGAUCAGAUGUGCCCCCCAUGUCCAAGGCGGGCAGUUCGGCAGCCUGAAUGAUCCCUACCAGCAGCUGCAACAGAGGAUUGAGCAUCA
B2: chr4:107939148:107939149:-_ENSMUSG00000034636_ENSMUST00000043616|mus_hu|FALSE|FALSE (ssRNA)
RNA: GGGAGUUCUACAGUCCGACGAUCCAUCUGGUUGCCCCUAAAAAUACCCACAGUUCCAUCAUUCAAUAGACCAUGAAAAGCCAUGGUCCGAAGCAGUCGAUCAGCCACCUCCUGUGGGAAUACUCCAGGUUCCUGCAGACACAACAACAGAGGAUUGAGCAUCA
B3: chr5:135496556:135496557:+_ENSG00000113658_ENST00000545279|hu_mus|FALSE|FALSE (ssRNA)
RNA: GGGAGUUCUACAGUCCGACGAUCGUUCCUGAACUGAACCAGAAGGCUGUGUUGUGGAUUGAAUUCAUUGUGACGAGGCACUAAUACUGGAGGUAAGACUGGACUCUCCACUCUCUUAUAGUGGUAUGGAUUGAUACAAACUUCCAACAGAGGAUUGAGCAUCA
B4: chr6:41757443:41757444:+_ENSG00000214736_ENST00000398881|hu_mus|hu_hu_hu_mus_False|8_78 (ssRNA)
RNA: GGGAGUUCUACAGUCCGACGAUCGAACCGUGCAGAGGCAACAUCUCAGCCGACACUGUGGACUCAAGGGGCAGUGGGGGGGGGUUCAGGCAAGGAGAGGGAGUCAACUUCAGCUGCCACUCAGGUAGCUGCCAUCAGUCACAGCAACAGAGGAUUGAGCAUCA
B5: 35327869_35327989_914_CDS_ENSG00000108094_ENST00000537177|human|control|control (ssRNA)
RNA: GGGAGUUCUACAGUCCGACGAUCUAUAUUAUGACAUUCUGCAUGUAAAAACUGUAAGUGGUCUGCUACCAUUCGUUGUUGACAUUCAUGAAUCACCUUAGUAUAUGAACUUGGAUGUAGGUAUUUUCGACAUCGAAUUUCUUCCAACAGAGGAUUGAGCAUCA
B6: chr17:38574076:38574077:-_ENSG00000131747_ENST00000423485|hu_hu|motif|central (ssRNA)
RNA: GGGAGUUCUACAGUCCGACGAUCAAUGGUGACACUUCCAUGGUGACGGUCGUGAAGGGGCUCAAGAACCCUGAAAGCGACGGAACAGGCAGGACCCCACGAGACCACCCCCGACCAAGCCGCUUCUCCACAGACGCGCGUCGGCAACAGAGGAUUGAGCAUCA
B7: 114354866_114354986_172_CDS_ENSG00000081019_ENST00000261441|human|control|control (ssRNA)
RNA: GGGAGUUCUACAGUCCGACGAUCCACCGCUCCGACCUGCGCAGCCAUUUCACCCACAAACACACAUUUAAAUGGCCCGACCGCCCCCCCGUCCGCGCAUCGCGCAAGCGCCGCCCGCGCACUGCCCGCUGGGCAUUGGAGUCUCAACAGAGGAUUGAGCAUCA
B8: chr4:25749455:25749456:-_ENSG00000091490_ENST00000264868|hu_hu|hu_hu_hu_mus_False|18_18 (ssRNA)
RNA: GGGAGUUCUACAGUCCGACGAUCGCACUAUGACCUCUAGAAAAAUCCACAGGGGGAAAAAAUGUAAACCAAUGUACAAUGUUAUCGCCUUCCCUGUGUGUGGAGUGUUUGUCUCAAUAUUUCAAGGAGCUGCUGGAUUUGGGACAACAGAGGAUUGAGCAUCA
B9: 149838666_149838786_1652_3pUTR_ENSMUSG00000048583_ENSMUST00000000033|mouse|control|control (ssRNA)
RNA: GGGAGUUCUACAGUCCGACGAUCGUCACACAUAGAGCCAAUAAGCAGCAGCAGAAACUAGAUGGAUUGGGAGGAGAGCUCAAACCAUGCAAACUGCUCAGGAAAUUUGGGAUGGGCCUUGUUUUGGGGAAUGUGGUUCAAAUCCAACAGAGGAUUGAGCAUCA
B10: chr14:35182089:35182090:-_ENSG00000165410_ENST00000422678|hu_hu|motif|central (ssRNA)
RNA: GGGAGUUCUACAGUCCGACGAUCCUUAAGAUCCAGAUGGCACUUGACUGUCAUUUUAUAAUGGUUUUCCUUCAAGUGAAACGGCGGCAUUGCCUCCCAAUUUCUCUCCAAGUGUCGAACGGUCCUUAAUAUCAUCCAAGCCAUCAACAGAGGAUUGAGCAUCA
B11: chr4:174295105:174295106:+_ENSG00000164105_ENST00000296504|hu_mus|motif|central (ssRNA)
RNA: GGGAGUUCUACAGUCCGACGAUCUUGUGCUUUAUUUAGACCUGGUCUGGUUGGAAGCUUGAAGUGUCUUUUGUAUCUUCGGAGUGUAUUUACUUGUAAUUGGUACAAAUCAACCUCUGGAGUGUCGAUGUCCUGAACAGGCGACAACAGAGGAUUGAGCAUCA
B12: chr8:95500983:95500984:-_ENSG00000164944_ENST00000437199|hu_hu|hu_hu_hu_mus_True|1_98 (ssRNA)
RNA: GGGAGUUCUACAGUCCGACGAUCAGAACACAUCUAUUCGUGUAAAGACCGUACAUGACGGCCUCUACCACUGCCUCCACUAACAAACUUUCCUCUCGAGCCUCCACUGCCGCUAUUUGUACUAGCCCAGGACGGUCCCAAGUCCAACAGAGGAUUGAGCAUCA
B13: chr3:104804989:104804990:-_ENSMUSG00000062127_ENSMUST00000098763|mus_hu|motif|central (ssRNA)
RNA: GGGAGUUCUACAGUCCGACGAUCACACAUCAUUACAAUCUGUUGGCCAGUAACAGCUUUUGCAACAUGGGUUAAUACGGAAAUUGUGAAUCAUGGAACUUUUACUUAGCACACACACACACAAUCUACAGCAAACUUAAAUACCAACAGAGGAUUGAGCAUCA
B14: 37168511_37169713_2590_CDS_ENSG00000170471_ENST00000397040|human|control|control (ssRNA)
RNA: GGGAGUUCUACAGUCCGACGAUCCACAAUCUCCAGUACUUCCUUAAGGCAGUCCUUUUCAUCAAGCAUAUCAGGGUGCUCUGUCAGCCAGACACAGAGACACUGAAAAGCUGCCACUAUCAUGGAGUGCAGAUCCCUGGAGUGCAACAGAGGAUUGAGCAUCA

Each binder was assayed against T1, UNK ZnF1-3 (human, UniProt Q9C0B0 31-174) (assay: nsRBNS (natural sequence RNA bind-n-seq); RBNS binding buffer (assumed for nsRBNS): 25 mM Tris pH 7.5, 150 mM KCl, 3 mM MgCl2, 0.01% Triton X-100, 500 ug/ml BSA, 20 U/ml SUPERase-In, 4 C; UNK is unkempt and MSI1 is Musashi-1; names of the RNAs are library labels; protein concentration not given here; high values mean tight binding).
T1 sequence: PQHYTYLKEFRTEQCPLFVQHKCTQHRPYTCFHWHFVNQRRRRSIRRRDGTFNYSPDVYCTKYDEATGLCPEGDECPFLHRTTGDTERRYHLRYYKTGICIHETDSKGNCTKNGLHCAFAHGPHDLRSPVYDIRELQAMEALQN

Binder	binding signal
B1	0.977 enrichment R
B2	1.5 enrichment R
B3	1.04 enrichment R
B4	2.1 enrichment R
B5	0.512 enrichment R
B6	0.885 enrichment R
B7	1.3 enrichment R
B8	1.37 enrichment R
B9	3.17 enrichment R
B10	0.649 enrichment R
B11	0.62 enrichment R
B12	1.01 enrichment R
B13	1.81 enrichment R
B14	1.06 enrichment R
